Cell count data for 32 compounds are collected here from the supplement of paper PMC4604168 (melanoma cell lines).

The list shows a part of the results. Single values are uncertain, as repeats are few or missing.
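Further: cells treated in 1,536-well plates, then fixed and DAPI-stained, with nuclei counted from automated high-throughput microscope images.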

The test system of this assay is A101D. Briefly: cell count relative to DMSO control; melanoma cells; higher = more viable cells. The note with it: library dose: standard library concentration; 72 h.
Consider `Cc1ccc(NC(=O)c2cccc(N(C)C)c2)cc1NC(=O)c1ccc(O)cc1` + O=C(O)C(=O)Nc1sc2c(c1C(=O)O)CCNC2 [TCS401] (first compound 10 µM, partner dose 8.33333 µM), for which the cell count was determined as 114%. Next, `NC(=O)c1ccc(N(C(N)=O)c2c(F)cccc2F)nc1-c1ccc(F)cc1F` + c1cc(-c2cnn3cc(-c4ccc(OCCN5CCCCC5)cc4)cnc23)ccn1 [Dorsomorphin] (first compound 2 µM, partner dose 2 µM): 104%. Next, `CC(C)(C)c1cnc(CSc2cnc(NC(=O)C3CCNCC3)s2)o1` + CCN(CC)CCCCNc1ncc2cc(-c3cc(OC)cc(OC)c3)c(NC(=O)NC(C)(C)C)nc2n1 [PD173074] (first compound 0.05 µM, partner dose 0.5 µM): 74.3%; `CCCCCCCCc1ccc(CCC(N)(CO)CO)cc1` [fingolimod] + CCc1ccc(CCOc2ccc(CC3SC(=O)NC3=O)cc2)nc1 [pioglitazone] (first compound 10 µM, partner dose 10 µM): 3.96%. In turn, `CCc1ccc(CCOc2ccc(CC3SC(=O)NC3=O)cc2)nc1` (configuration not stated) [pioglitazone] + O=C1NC(=O)/C(=C/c2ccc(-c3ccc(F)cc3O)o2)S1 [AS252424] (first compound 10 µM, partner dose 5 µM) registered a cell count of 89.7%.

As to `CCCCCCCCc1ccc(CCC(N)(CO)CO)cc1` [fingolimod] + CCN(CC)CCCCNc1ncc2cc(-c3cc(OC)cc(OC)c3)c(NC(=O)NC(C)(C)C)nc2n1 [PD173074] (first compound 10 µM, partner dose 0.5 µM), the cell count is 7.44%.

The compound `COc1cc2c(Oc3ccc4[nH]c(C)cc4c3F)ncnc2cc1OCCCN1CCCC1` [cediranib] + CC(C)CCN1c2nc(Nc3cc(F)c(O)c(F)c3)ncc2N(C)C(=O)C1C [BID1870] (first compound 2 µM, partner dose 1 µM) returned a cell count of 61%. Next, `Cc1ccc(NC(=O)c2cccc(N(C)C)c2)cc1NC(=O)c1ccc(O)cc1` + O=C(Nc1ccccc1)c1cc([N+](=O)[O-])ccc1Cl [GW9662] (first compound 10 µM, partner dose 10 µM): 64.8%; `CCCCCCCCc1ccc(CCC(N)(CO)CO)cc1` [fingolimod] + O=S(=O)(c1ccccc1)N(CC(F)(F)F)c1ccc(C(O)(C(F)(F)F)C(F)(F)F)cc1 [T0901317] (first compound 10 µM, partner dose 7 µM): 3.8%; `CN(NC(=O)CC(=O)NN(C)C(=S)c1ccccc1)C(=S)c1ccccc1` + CCN(CC)CCCCNc1ncc2cc(-c3cc(OC)cc(OC)c3)c(NC(=O)NC(C)(C)C)nc2n1 [PD173074] (first compound 0.03 µM, partner dose 0.5 µM): 64.7%.

In the case of `Cc1ccc(NC(=O)c2cccc(N(C)C)c2)cc1NC(=O)c1ccc(O)cc1` + CC(C)CCN1c2nc(Nc3cc(F)c(O)c(F)c3)ncc2N(C)C(=O)C1C [BID1870] (first compound 10 µM, partner dose 1 µM), the cell count stood at 53.6%. Next, `CCCCCCCCc1ccc(CCC(N)(CO)CO)cc1` [fingolimod] + CCCCCCCCCCCC1=C(O)C(=O)C=C(O)C1=O [Embelin] (first compound 10 µM, partner dose 6 µM): 10.8%; `NC(=O)c1ccc(N(C(N)=O)c2c(F)cccc2F)nc1-c1ccc(F)cc1F` + COc1cc(N2CCC(N3CCN(C)CC3)CC2)ccc1Nc1ncc(Cl)c(Nc2ccccc2S(=O)(=O)C(C)C)n1 [NVP-TAE684] (first compound 2 µM, partner dose 0.4 µM): 87.1%. Next, `CC(C)(C)c1cnc(CSc2cnc(NC(=O)C3CCNCC3)s2)o1` + COc1cc(N2CCC(N3CCN(C)CC3)CC2)ccc1Nc1ncc(Cl)c(Nc2ccccc2S(=O)(=O)C(C)C)n1 [NVP-TAE684] (first compound 0.05 µM, partner dose 0.4 µM): 71.2%; `CCCCCCCCc1ccc(CCC(N)(CO)CO)cc1` [fingolimod] + O=C(O)C(=O)Nc1sc2c(c1C(=O)O)CCNC2 [TCS401] (first compound 10 µM, partner dose 8.33333 µM): 17.7%; `COc1cc2c(Oc3ccc4[nH]c(C)cc4c3F)ncnc2cc1OCCCN1CCCC1` [cediranib] + Cc1cc([N+](=O)[O-])ccc1NS(=O)(=O)c1cc(Cl)ccc1Cl [FH535] (first compound 2 µM, partner dose 5 µM): 76.9%.

`Cc1ccc(NC(=O)c2cccc(N(C)C)c2)cc1NC(=O)c1ccc(O)cc1` + O=c1cc(-c2cccc3c2Sc2ccccc2S3)oc(N2CCOCC2)c1 [KU55933] (first compound 10 µM, partner dose 5 µM) registered a cell count of 78.7%. Next, `CC(C)(C)c1cnc(CSc2cnc(NC(=O)C3CCNCC3)s2)o1` + CCCCCCCCCCCC1=C(O)C(=O)C=C(O)C1=O [Embelin] (first compound 0.05 µM, partner dose 6 µM): 100%. The compound `CC(C)(C)c1cnc(CSc2cnc(NC(=O)C3CCNCC3)s2)o1` + CC(C)CCN1c2nc(Nc3cc(F)c(O)c(F)c3)ncc2N(C)C(=O)C1C [BID1870] (first compound 0.05 µM, partner dose 1 µM) showed a cell count of 45.2%. Next, `NC(=O)c1ccc(N(C(N)=O)c2c(F)cccc2F)nc1-c1ccc(F)cc1F` + Oc1cc(-c2nc(-c3ccccc3)[nH]c2-c2ccncc2)ccc1Cl [L779450] (first compound 2 µM, partner dose 1 µM): 67%; `CN(NC(=O)CC(=O)NN(C)C(=S)c1ccccc1)C(=S)c1ccccc1` + O=c1cc(-c2cccc3c2Sc2ccccc2S3)oc(N2CCOCC2)c1 [KU55933] (first compound 0.03 µM, partner dose 5 µM): 58.5%; `NC(=O)c1ccc(N(C(N)=O)c2c(F)cccc2F)nc1-c1ccc(F)cc1F` + O=S(=O)(c1ccccc1)N(CC(F)(F)F)c1ccc(C(O)(C(F)(F)F)C(F)(F)F)cc1 [T0901317] (first compound 2 µM, partner dose 7 µM): 92.5%. Next, `Cc1ccc(NC(=O)c2cccc(N(C)C)c2)cc1NC(=O)c1ccc(O)cc1` + COc1ccc2c(c1)CCC1C2CCC2(C)C(NCCCCCCN3C(=O)C=CC3=O)CCC12 [U73122] (first compound 10 µM, partner dose 2 µM): 76.2%; `CCc1ccc(CCOc2ccc(CC3SC(=O)NC3=O)cc2)nc1` (configuration not stated) [pioglitazone] + O=S(=O)(c1ccccc1)N(CC(F)(F)F)c1ccc(C(O)(C(F)(F)F)C(F)(F)F)cc1 [T0901317] (first compound 10 µM, partner dose 7 µM): 92.9%; `COc1cc2c(Oc3ccc4[nH]c(C)cc4c3F)ncnc2cc1OCCCN1CCCC1` [cediranib] + Oc1cc(-c2nc(-c3ccccc3)[nH]c2-c2ccncc2)ccc1Cl [L779450] (first compound 2 µM, partner dose 1 µM): 78.3%.

`Cc1ccc(NC(=O)c2cccc(N(C)C)c2)cc1NC(=O)c1ccc(O)cc1` + COc1ccc(COc2ccc(Cc3cnc(N)nc3N)cc2OC)cc1 [GW2580] (first compound 10 µM, partner dose 5 µM) returned a cell count of 109%. Next, `COc1cc2c(Oc3ccc4[nH]c(C)cc4c3F)ncnc2cc1OCCCN1CCCC1` [cediranib] + COc1ccc2c(c1)CCC1C2CCC2(C)C(NCCCCCCN3C(=O)C=CC3=O)CCC12 [U73122] (first compound 2 µM, partner dose 2 µM): 85.5%; `CC(C)(C)c1cnc(CSc2cnc(NC(=O)C3CCNCC3)s2)o1` + Oc1nc(-c2ccc(C(F)(F)F)cc2)nc2c1CSCC2 [XAV939] (first compound 0.05 µM, partner dose 10 µM): 77.3%; `COc1cc2c(Oc3ccc4[nH]c(C)cc4c3F)ncnc2cc1OCCCN1CCCC1` [cediranib] + O=C(O)C(=O)Nc1sc2c(c1C(=O)O)CCNC2 [TCS401] (first compound 2 µM, partner dose 8.33333 µM): 110%. Consider `Cc1ccc(NC(=O)c2cccc(N(C)C)c2)cc1NC(=O)c1ccc(O)cc1` + COC(=O)c1sccc1S(=O)(=O)Nc1ccc(Nc2ccccc2)cc1OC [GSK0660] (first compound 10 µM, partner dose 5 µM), for which the cell count is 92.5%. Turning to `CC(C)(C)c1cnc(CSc2cnc(NC(=O)C3CCNCC3)s2)o1` + CCc1ccc(CCOc2ccc(CC3SC(=O)NC3=O)cc2)nc1 [pioglitazone] (first compound 0.05 µM, partner dose 10 µM), the cell count is 80.1%.

For `CCc1ccc(CCOc2ccc(CC3SC(=O)NC3=O)cc2)nc1` (configuration not stated) [pioglitazone] + COc1cc2ncnc(Nc3ccc(Oc4ccccc4)cc3)c2cc1OC [SrcI1] (first compound 10 µM, partner dose 10 µM), the cell count is 68.4%.
